In publication PMC7244561:
Where a chain is given by its changes, count along the chain named. These are yes or no findings as the source states them, for the method shown. Binding seen in cells or lysates may run through a third protein. Some entries that bind do so weakly or less than the wild type. Sequences can lack the tags named with a protein.

Amino acid sequences for entries named in this document (tags omitted). A change or cut given only in a name is not applied to a line headed by its entry. Residues count along the entry.
UniProt Q00987: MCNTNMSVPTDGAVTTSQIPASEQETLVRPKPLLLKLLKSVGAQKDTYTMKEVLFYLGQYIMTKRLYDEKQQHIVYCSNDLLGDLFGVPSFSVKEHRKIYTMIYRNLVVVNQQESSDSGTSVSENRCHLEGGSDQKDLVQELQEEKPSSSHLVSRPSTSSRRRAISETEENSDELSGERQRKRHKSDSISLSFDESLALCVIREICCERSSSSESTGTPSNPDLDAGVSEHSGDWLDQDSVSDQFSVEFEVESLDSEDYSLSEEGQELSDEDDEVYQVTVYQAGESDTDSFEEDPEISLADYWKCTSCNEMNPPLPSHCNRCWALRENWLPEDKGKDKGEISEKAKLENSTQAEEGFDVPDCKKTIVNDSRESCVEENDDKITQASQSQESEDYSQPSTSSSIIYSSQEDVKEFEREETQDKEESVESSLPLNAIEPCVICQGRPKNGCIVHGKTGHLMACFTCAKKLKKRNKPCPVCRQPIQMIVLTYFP
GST-MDM2 (384–491): residues 384-491 of Q00987

B1: FLAG-tagged ATF3(1–101) (domain or fragment, UniProt P18847 1-101)
chain: MMLQHPGQVSASEVSASAIVPCLSPPGSLVFEDFANLTPFVKEELRFAIQNKHLCHRMSSALESVTVSDRPLGVSITKAEVAPEEDERKKRRRERNKIAAA
B2: FLAG-ATF3wt (wild-type activating transcription factor 3) (protein, UniProt P18847 1-181)
chain: MMLQHPGQVSASEVSASAIVPCLSPPGSLVFEDFANLTPFVKEELRFAIQNKHLCHRMSSALESVTVSDRPLGVSITKAEVAPEEDERKKRRRERNKIAAAKCRNKKKEKTECLQKESEKLESVNAELKAQIEELKNEKQHLIYMLNLHRPTCIVRAQNGRTPEDERNLFIQQIKEGTLQS
B3: FLAG-tagged ATF3 5KR (protein, UniProt P18847 1-181)
chain: B2 chain with K102R, K106R, K107R, K108R, K110R
B4: FLAG-tagged JDP2 (protein, UniProt Q8WYK2 1-163)
chain: MMPGQIPDPSVTTGSLPGLGPLTGLPSSALTVEELKYADIRNLGAMIAPLHFLEVKLGKRPQPVKSELDEEEERRKRRREKNKVAAARCRNKKKERTEFLQRESERLELMNAELKTQIEELKQERQQLILMLNRHRPTCIVRTDSVKTPESEGNPLLEQLEKK

Key:
GST-MDM2 (384–491) = GST-MDM2 (384–491) (UniProt Q00987); experiment: pull-down; GST-MDM2 (384–491) immobilized; FLAG-tagged proteins in vitro translated and incubated with it; detection by western blotting; only the target purified
[1] = target: MDM2 (coexpressed in H1299 cells) (UniProt Q00987); experiment: co-IP; H1299 cells transfected with FLAG-ATF3wt or FLAG-ATF3VPI in the presence/absence of MDM2; co-IP with the MDM2 antibody, western blotting

Binder | binding (GST-MDM2 (384–491)) | binding [1]
B1 | binds | 
B2 |  | binds
B3 | binds | 
B4 | no binding | 
